Data: publication PMC4336329 (PLoS ONE, 2015)
Hit rate of the full screen: of about 310,000 compounds, about 2,200 (0.71%) showed an effect of 50% or more. Effects have a minus sign here. Some of the results follow.

Target: human ether-à-go-go-related gene (hERG) potassium channel (human, UniProt Q12809)
Experiment: primary screen, population patch clamp on CHO cells stably expressing hERG

human ether-à-go-go-related gene (hERG) potassium channel, sequence (Q12809 whole entry, looked up): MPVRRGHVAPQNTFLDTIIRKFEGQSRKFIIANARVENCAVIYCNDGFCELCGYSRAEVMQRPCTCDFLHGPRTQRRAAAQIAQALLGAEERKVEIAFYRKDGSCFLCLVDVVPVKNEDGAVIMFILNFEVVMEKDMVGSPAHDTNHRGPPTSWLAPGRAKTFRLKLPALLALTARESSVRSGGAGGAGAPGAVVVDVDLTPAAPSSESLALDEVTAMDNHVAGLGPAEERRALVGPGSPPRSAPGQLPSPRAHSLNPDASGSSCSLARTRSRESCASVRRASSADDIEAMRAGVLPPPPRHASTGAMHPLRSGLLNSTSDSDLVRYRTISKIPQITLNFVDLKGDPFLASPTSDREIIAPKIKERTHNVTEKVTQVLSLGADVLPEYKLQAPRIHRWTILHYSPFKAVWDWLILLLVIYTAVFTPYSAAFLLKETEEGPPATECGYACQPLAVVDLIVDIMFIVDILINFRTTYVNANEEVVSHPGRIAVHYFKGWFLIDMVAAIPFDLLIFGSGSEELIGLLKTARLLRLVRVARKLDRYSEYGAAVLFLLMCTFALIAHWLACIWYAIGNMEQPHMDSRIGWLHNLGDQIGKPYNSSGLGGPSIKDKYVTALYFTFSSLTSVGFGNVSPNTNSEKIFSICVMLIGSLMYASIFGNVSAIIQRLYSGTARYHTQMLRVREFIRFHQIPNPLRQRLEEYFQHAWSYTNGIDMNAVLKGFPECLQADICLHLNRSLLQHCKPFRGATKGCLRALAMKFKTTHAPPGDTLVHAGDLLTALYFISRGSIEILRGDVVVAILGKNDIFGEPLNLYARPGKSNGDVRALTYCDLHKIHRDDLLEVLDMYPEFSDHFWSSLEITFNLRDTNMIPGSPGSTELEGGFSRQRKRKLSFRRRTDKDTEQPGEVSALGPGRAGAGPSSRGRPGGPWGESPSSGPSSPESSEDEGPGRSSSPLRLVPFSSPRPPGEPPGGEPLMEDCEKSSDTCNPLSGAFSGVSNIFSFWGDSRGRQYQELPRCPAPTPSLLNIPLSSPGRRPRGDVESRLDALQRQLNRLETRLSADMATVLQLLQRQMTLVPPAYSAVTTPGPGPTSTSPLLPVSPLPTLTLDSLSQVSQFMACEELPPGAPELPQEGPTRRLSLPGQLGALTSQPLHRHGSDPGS

Compound	hERG current change (%, negative = inhibition) at 1uM [%]
NS(=O)(=O)c1ccc(CCNC(=O)c2cccc3ccccc23)cc1	11.6
NC(=O)c1nc[nH]c1C(=O)Nc1cccc(C(F)(F)F)c1	9.75
CC(C)CC(=O)N1CCN(C(=O)c2ccc(F)cc2)CC1	17.4
CCOc1ccccc1NC(=S)N1CCC(c2nc3ccccc3o2)CC1	10.3
Cc1c(Cc2ccccc2)sc(/N=C/c2c(O)ccc3ccccc23)c1C(N)=O	-0.0249
O=C(c1cccc(Cl)c1)N1CCN(S(=O)(=O)c2ccc(Cl)s2)CC1	8.22
COc1ccc(C)cc1NC(=O)CSc1nnc(CC(=O)Nc2ccccc2F)n1C	11.8
Cc1ccc(-c2nn(-c3cccc(F)c3)cc2CN2CCN(c3ccccn3)CC2)o1	-0.655
Cc1ncsc1C(=O)Nc1nc2c(s1)CC(C)CC2 (stereo not drawn)	12
Cn1c(O)c(C=NCc2cccs2)c(=O)n(C)c1=O	6.26
CCC(Oc1ccccc1C)C(=O)N1CCCN(C)CC1 (stereo not drawn)	14
Cc1ccc(-c2noc(CN(C(=O)CCCN3C(=O)c4ccccc4C3=O)C(C)C)n2)cc1	-6.27
CC(=O)N1c2ccc(S(=O)(=O)NCC3CCC(C(=O)NCc4ccc(C)o4)CC3)cc2CC1C (stereo not drawn)	14.6
O=C(C1=NN[C@@H]2C(=O)N(c3cccc(C(F)(F)F)c3)C(=O)[C@H]12)c1cnccn1	11.6
COCCNC(=S)N1CCN(C)CC1.O=C(O)C(=O)O	8.6
CCOC(=O)CNC(=O)c1ccc(OCC(F)(F)F)cc1	6.16
CCn1ccnc1CN1CCN(CC(C)C)C(CCO)C1 (stereo not drawn)	3.47
CC(C)(C)C(=O)CSc1ncnc2c1cnn2Cc1ccccc1	12.1
CC1CCCCN1S(=O)(=O)c1ccc(-n2cnnn2)cc1 (stereo not drawn)	-10.3
CC1(C)CC(C2N3CC4(C)CN2CC(C)(C3)C4=O)CCO1 (stereo not drawn)	5.02
O=C(N/C(=C/c1cccc([N+](=O)[O-])c1)C(=O)N1CCCCCC1)c1ccco1	7.99
COc1ccc(C2CC(=O)C=C(NNS(=O)(=O)c3ccc(C)cc3)C2)cc1 (stereo not drawn)	5.25
CCCCc1ccc(S(=O)(=O)Nc2nnc(C)s2)cc1	21.9

Compound	hERG current change (%, negative = inhibition) at 1uM [%]
CC(=O)c1cccc(NC(=O)CN(C)Cc2ccc(OC(F)F)cc2)c1	-2.11
N#CCOc1ccccc1/C=N/n1nnnc1N	17.1
CCOC(=O)c1nnn(CC(=O)Nc2cc(Cl)ccc2C)c1C(=O)OCC	16.4
O=C(Nc1cccc([N+](=O)[O-])c1)C1C2CC/C=C\CCC21 (stereo not drawn)	12.4
CC1CCCCN1CCNC(=O)c1ccc2c(c1)N(Cc1cccc(Cl)c1)C(=O)c1ccccc1S2=O (stereo not drawn)	7
COC(=O)Cn1c(C)nc([N+](=O)[O-])c1Br	5.63
CN(C1CCCCC1)S(=O)(=O)c1cccc2nsnc12	11.9
Cc1[nH]n(-c2ccccc2)c(=O)c1Sc1ccc(Cl)cc1	7.11
O=C(/C=C/c1cccc([N+](=O)[O-])c1)NCCSc1ccccc1	4.19
O=C(C1CCCO1)N1CCN(Cc2nc3ccccc3c(=O)[nH]2)CC1 (stereo not drawn)	11.1
COCCNC(=O)c1ccc(NS(C)(=O)=O)cc1	10.2
O=C(N/N=C/c1cc(Cl)ccc1O)c1ccccc1Br	14.5
Cc1ccn2cc(-c3cccc(NC(=O)CCC(=O)O)c3)nc2c1	17.5
Cc1onc(-c2ccccc2Cl)c1C(=O)N1CCCC1	12
COc1ccc(NC(=O)c2cc(C)no2)cc1	18.9
COc1cc(NC(=O)CSc2ccc(-c3ccccn3)nn2)cc(OC)c1	15.4
CC(=O)c1sc(-c2ccccc2)nc1C	-1.3
N#CCC(=N)N1CCN(c2ccc(F)cc2)CC1	4.63
COc1ccc(C(=O)N2CCN(CCc3ccccn3)CC2)cc1.Cl	-66.6
COc1ccc(CCNC(=O)c2nc3ncccn3n2)cc1OC	17.9
COc1cc(COc2ccc3c(C)c(CC(=O)O)c(=O)oc3c2C)cc(OC)c1OC	9.85
CC(=O)c1ccc(-n2ccc(=O)cc2)cc1	16.1
O=C(NCCCO)c1nnc(Cc2c(F)cccc2Cl)o1	9.61

Compound	hERG current change (%, negative = inhibition) at 1uM [%]
CCOC(=O)CC(=O)CSc1nc2c(c(-c3cccs3)c1C#N)CCC2	-3.94
Cc1ccc2nsnc2c1NC(=O)c1sc2ccccc2c1Cl	12.6
Cc1cc(OCC(=O)NC(C)c2ccccc2)ccc1[N+](=O)[O-] (stereo not drawn)	-0.258
CC(C)c1nc(CNC(=O)C2CCC(=O)N(Cc3ccc(Cl)cc3)C2)no1 (stereo not drawn)	13.3
CC(C)OC(=O)CSc1nnc(-c2ccco2)n1N	1.32
CCc1nn(C(CC)C(=O)NCc2cccc(OC)c2OC)c(=O)c2cc3occc3n12 (stereo not drawn)	7.7
Cl.Clc1cccc(N2CCNCC2)c1	9.51
CN(C)S(=O)(=O)c1cccc(CSCc2cccc(S(=O)(=O)N(C)C)c2)c1	16.7
Cc1ccc(-c2noc(=O)n2CC(=O)c2ccc(Cl)cc2)cc1	12.9
O=C(Cc1ccccc1)OCc1ccccc1	14.8
CC(C)(C)C(=O)N/C(N)=N/c1nc2ccccc2o1	12.6
CSc1ccc(NC(=O)NCCCN2CCN(c3ccccc3F)CC2)cc1	-12.8
COc1ccc(Cl)cc1NC(=O)CN(C)CC(=O)Nc1ccccc1N1CCOCC1.O=C(O)C(=O)O	12.4
COc1cccc(-c2cc(C(=O)N3CCN(Cc4ccc5c(c4)OCO5)CC3)on2)c1	0.447
NC(=O)c1nnn(-c2ccccc2)c1N	14.8
CC(=O)n1cc(/C=N/NC(=O)c2ccc([N+](=O)[O-])cc2)c2ccccc21	14.7
O=C(CSC1=NS(=O)(=O)c2cc(Cl)ccc2N1)c1ccc(Cl)cc1	10.6
C[C@H](N=C1NS(=O)(=O)c2ccccc21)C(=O)OCc1cc([N+](=O)[O-])cc2c1OCOC2	-6.37
CCOC(=O)C1C(=O)CC(C)(O)C(C(=O)OCC)C1c1ccc(OCC)cc1 (stereo not drawn)	-2.96
CCOC(=O)C1(Cc2ccccc2)CCN(Cc2ccc3cc(NC(C)=O)ccc3n2)CC1	-19.1
CC12CCC(C(=O)OC3CCCCC3)(OC1=O)C2(C)C (stereo not drawn)	14.5
O=C(COc1cccnc1[N+](=O)[O-])NCCc1ccc(Cl)cc1	9.83
COc1ccc(C(=O)OC(C)C(=O)NC2CCCC2)cc1S(=O)(=O)N1CCOCC1 (stereo not drawn)	10.1

Compound	hERG current change (%, negative = inhibition) at 1uM [%]
COC(=O)c1ccc(C23CC4(C2)[C@H](CN(Cc2ccc(C(F)(F)F)cc2)[C@@H]4c2ccccc2)C3c2ccc(Cl)nc2)cc1 (stereo partly drawn)	14.3
CCOC(=O)c1cc(OCC(=O)NC(C)C(C)C)cc(C(=O)OCC)c1 (stereo not drawn)	2.41
Cc1ccc(S(N)(=O)=O)cc1NC(=O)C1CC2CCC1C2 (stereo not drawn)	10.9
Cc1ccc(C)c(S(=O)(=O)N2CCN(C(=O)c3ccc(-n4cncn4)c([N+](=O)[O-])c3)CC2)c1	-24.9
O=C1NC(N2CCOCC2)=N/C1=C/c1ccc2c(c1)OCO2	11.1
Cc1cc(=O)[nH]c(N/N=C/c2ccc(-c3ccc(F)cc3)o2)n1	4.59
CC1Cc2nc(SCC(=O)c3ccccc3)n(Cc3ccccc3)c(=O)c2S1 (stereo not drawn)	11.6
CC(=O)Nc1ccc(NS(=O)(=O)c2ccc(-c3csc(C)n3)s2)cc1	2.06
O=C(CSc1nc(=O)n(CCCN2CCOCC2)c2c1CCC2)Nc1ccc(F)cc1F	-3.76
COc1ccc(-n2nc(C(=O)Nc3nc4ccc(OC)cc4s3)c3ccccc3c2=O)c(OC)c1	9.59
CCN(CC)C(=O)c1ccc2c(=O)n(Cc3cccc(Br)c3)c(=S)[nH]c2c1	16.1
CCC1(C)CC(C(N)=S)CCO1 (stereo not drawn)	10.4
C=CCN(C(=O)c1csnn1)C(C(=O)NC1CCCC1)c1ccc(OC)cc1 (stereo not drawn)	8.18
CCCc1ccc(-c2cc(C(=O)NN3CCOCC3)c3ccccc3n2)cc1	-1.34
CCCN(CCC)C(C(=O)Nc1cccc(OC)c1)c1ccccc1 (stereo not drawn)	15.6
O=C(Nc1ccc(F)cc1)c1nc[nH]c1C(=O)Nc1ccccc1[N+](=O)[O-]	1.76
COc1ccc2nc(SCC(=O)NC3CCCCC3C)[nH]c2c1 (stereo not drawn)	9.58
Cc1ccc(C2CC(=O)C=C(O)C2)cc1 (stereo not drawn)	7.09
O=C(NC(=S)Nc1cccc(Cl)c1N1CCCCC1)c1ccco1	20.3
O=C(O)C1CCCN1C1=NS(=O)(=O)c2ccccc21 (stereo not drawn)	2.35
Cc1nnc2n(c1=O)C(CS(=O)(=O)c1ccc3ccccc3c1)CS2 (stereo not drawn)	9.24
